# Data published in publication PMC5700166.
# The entries are a selection whose mix differs from that of the whole data set. The list includes weakly bound sequences.
# Experiments:
# Experiment in all cases: protein-binding microarray (PBM)
# Settings in all cases: PBM: ~300 nM protein, 6 mM HEPES pH 7.8, 80 mM KCl, 0.5 mM EDTA, 0.5 mM EGTA, 6% glycerol, 35 ng/ul poly-dIdC, 1% milk, 1 h, room temperature; Ap Aiptasia and Nv Nematostella (sea anemones) / Co Capsaspora / Aq Amphimedon (sponge) / Dm Drosophila / Hu human; RHD is the Rel homology domain; high values mean tight binding; most listed sequences are background and not binding sites; double strand, one strand shown
# GST-Ap-NF-kB RHD = biological target: T1, GST-Ap-NF-kB RHD (UniProt A0A913YAJ5)
# T1 sequence: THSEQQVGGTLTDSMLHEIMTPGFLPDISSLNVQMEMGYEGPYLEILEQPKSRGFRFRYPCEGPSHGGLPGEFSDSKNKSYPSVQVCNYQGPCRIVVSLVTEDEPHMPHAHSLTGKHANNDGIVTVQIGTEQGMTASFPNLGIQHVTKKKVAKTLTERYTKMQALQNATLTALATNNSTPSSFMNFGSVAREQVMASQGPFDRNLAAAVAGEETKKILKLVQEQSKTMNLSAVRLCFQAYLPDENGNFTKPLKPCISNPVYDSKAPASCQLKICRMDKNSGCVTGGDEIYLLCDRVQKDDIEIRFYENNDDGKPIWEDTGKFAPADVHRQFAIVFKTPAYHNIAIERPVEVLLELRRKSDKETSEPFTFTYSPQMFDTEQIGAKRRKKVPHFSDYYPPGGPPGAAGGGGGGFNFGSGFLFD
# [1] = biological target: T2, GST-Nv-NF-kB (Cys allele) (UniProt E5G601)
# T2 sequence: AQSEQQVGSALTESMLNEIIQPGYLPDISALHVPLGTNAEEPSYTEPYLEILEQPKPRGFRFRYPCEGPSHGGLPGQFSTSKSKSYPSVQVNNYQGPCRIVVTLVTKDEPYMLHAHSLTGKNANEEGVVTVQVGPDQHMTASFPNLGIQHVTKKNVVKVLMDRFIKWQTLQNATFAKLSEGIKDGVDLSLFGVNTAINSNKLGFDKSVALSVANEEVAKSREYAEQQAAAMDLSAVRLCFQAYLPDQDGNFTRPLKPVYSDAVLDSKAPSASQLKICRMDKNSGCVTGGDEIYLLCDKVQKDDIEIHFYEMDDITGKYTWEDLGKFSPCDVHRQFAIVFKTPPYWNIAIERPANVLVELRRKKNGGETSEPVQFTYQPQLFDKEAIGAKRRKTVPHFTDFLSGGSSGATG
# GST-Co-NF-kB = biological target: T3, GST-Co-NF-kB (UniProt F1ARL5)
# T3 sequence: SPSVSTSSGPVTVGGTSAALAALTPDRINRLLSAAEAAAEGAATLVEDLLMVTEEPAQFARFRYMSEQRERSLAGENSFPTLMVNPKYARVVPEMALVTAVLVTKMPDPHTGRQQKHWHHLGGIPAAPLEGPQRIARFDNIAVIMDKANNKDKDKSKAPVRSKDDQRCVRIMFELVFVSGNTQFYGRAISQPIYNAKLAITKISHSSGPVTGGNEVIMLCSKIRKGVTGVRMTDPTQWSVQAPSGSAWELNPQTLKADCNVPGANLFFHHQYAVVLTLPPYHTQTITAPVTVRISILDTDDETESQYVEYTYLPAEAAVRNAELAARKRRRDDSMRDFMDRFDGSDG
# GST-Dm-Relish = biological target: T4, GST-Dm-Relish (UniProt Q94527)
# T4 sequence: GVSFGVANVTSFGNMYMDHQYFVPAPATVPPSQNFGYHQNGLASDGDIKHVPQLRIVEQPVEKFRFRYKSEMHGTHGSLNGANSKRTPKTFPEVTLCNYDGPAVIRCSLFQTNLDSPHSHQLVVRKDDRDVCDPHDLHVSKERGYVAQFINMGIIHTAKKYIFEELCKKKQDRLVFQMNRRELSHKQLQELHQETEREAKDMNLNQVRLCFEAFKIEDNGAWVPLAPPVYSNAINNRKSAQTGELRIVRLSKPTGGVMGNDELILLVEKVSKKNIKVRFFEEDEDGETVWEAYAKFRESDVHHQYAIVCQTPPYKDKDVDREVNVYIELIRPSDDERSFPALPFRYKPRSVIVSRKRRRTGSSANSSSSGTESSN
# GST-Aq-NF-kB = biological target: T5, GST-Aq-NF-kB (UniProt A9Y5G7)
# T5 sequence: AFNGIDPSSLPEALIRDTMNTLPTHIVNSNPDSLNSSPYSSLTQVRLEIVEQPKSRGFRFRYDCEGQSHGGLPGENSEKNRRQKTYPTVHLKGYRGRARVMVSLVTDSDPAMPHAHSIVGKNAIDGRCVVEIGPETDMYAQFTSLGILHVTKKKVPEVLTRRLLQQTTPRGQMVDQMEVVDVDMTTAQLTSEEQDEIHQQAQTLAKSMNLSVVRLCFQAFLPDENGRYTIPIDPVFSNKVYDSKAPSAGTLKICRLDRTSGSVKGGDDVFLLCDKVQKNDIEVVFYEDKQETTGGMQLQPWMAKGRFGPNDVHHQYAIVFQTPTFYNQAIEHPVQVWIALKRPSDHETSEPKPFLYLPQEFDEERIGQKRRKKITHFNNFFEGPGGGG
Sequence,binding signal (GST-Ap-NF-kB RHD) [z-score],binding signal [1] [z-score],binding signal (GST-Co-NF-kB) [z-score],binding signal (GST-Dm-Relish) [z-score],binding signal (GST-Aq-NF-kB) [z-score]
CCGATTAACATCAGAACATGCGTTGATGTTAATCGGGTCTTGATTCGCTTGACGCTGCTG,-0.151,-0.97,-0.551,-0.807,-0.495
CCGATTAACATCAGCACCGTTGCTGATGTTAATCGGGTCTTGATTCGCTTGACGCTGCTG,-0.45,0.0142,-0.597,-0.621,0.0757
CCGATTAACATCAGCGTTTCTCTTGATGTTAATCGGGTCTTGATTCGCTTGACGCTGCTG,-0.637,-0.345,-0.45,-1.25,-0.257
CCGATTAACATCATGACTCCTGTTGATGTTAATCGGGTCTTGATTCGCTTGACGCTGCTG,-0.185,-0.259,0.224,-0.371,-0.302
CCGATTAACATCATACCTCCCGTTGATGTTAATCGGGTCTTGATTCGCTTGACGCTGCTG,0.188,0.434,1.01,-0.174,0.765
CCGATTAACATCATAAGTCCGAATGATGTTAATCGGGTCTTGATTCGCTTGACGCTGCTG,-0.323,-0.649,-0.289,-0.525,-0.146
CCGATTAACATCAAGAAATTCCGTGATGTTAATCGGGTCTTGATTCGCTTGACGCTGCTG,0.0452,0.746,0.627,0.863,1.24
CCGATTAACATCAAGTTTATCGATGATGTTAATCGGGTCTTGATTCGCTTGACGCTGCTG,-0.708,-0.488,-0.561,-0.284,-0.652
CCGATTAACATCAGTTATCAGTATGATGTTAATCGGGTCTTGATTCGCTTGACGCTGCTG,-0.34,-0.63,0.128,-0.214,-0.207
